Some of the results follow. At the low end of the ranking the order means little.

The text below walks through data of paper PMC10668032.

For the test, the target named is SIX1 homeodomain (reference allele) (UniProt Q15475). Description: universal protein binding microarray. The note with it: Universal all-10-mer PBM (8x60K, AMADID 030236), 300 nM GST-tagged protein, Alexa Fluor 488 anti-GST; buffer, salt, pH and temperature not stated; high values mean tight binding; most listed sequences are background and not binding sites; double strand, one strand shown.
As to TCGAATCA, the binding signal is -0.126 E-score. Turning to GGAGCCCC, the binding signal is -0.023 E-score. GCGCAAGA: the binding signal is -0.15 E-score.

CCCTACCA: the binding signal is -0.0974 E-score. AGCTCCCA: the binding signal was -0.0789 E-score. To GACACAAC belongs -0.158 E-score; to GCCTATGA, -0.0282 E-score; to CCCGTGCA, -0.0797 E-score. The figure for CTACTCGA is 0.0499 E-score; for TCATTCCA it is 0.0032 E-score; for ATCAAATG it is 0.137 E-score. On to AGGCTACA, for which the binding signal was -0.133 E-score.

As to AAATCTTC, the binding signal is -0.251 E-score. In the case of CACACCAC, the binding signal came out at 0.206 E-score. For the sequence CAGGCGGA, the binding signal came out at 0.0619 E-score. Regarding GTCGGATA, the binding signal came out at 0.407 E-score.

In the case of ACATTCTG, the binding signal is -0.205 E-score. As to AATATGTG, the binding signal was found to be 0.197 E-score. To CACGGAAG belongs 0.0307 E-score; to GCGTCCTA, -0.113 E-score; to CTCTACGC, -0.122 E-score. The figure for CCTTTATA is -0.103 E-score; for GGTGATGA it is 0.191 E-score.

As for AGGGGTTC, the binding signal was -0.0504 E-score. On to ACAATTGC, for which the binding signal is -0.0574 E-score. Take CGTTGACC: the binding signal is -0.171 E-score. For CACTCTTA, the binding signal is -0.0795 E-score. For AGGAAAAG, the binding signal was -0.159 E-score. Turning to GAGAATAA, the binding signal was -0.106 E-score.

Turning to ATCTGTTG, the binding signal was 0.06 E-score.

In the case of CGATCTAC, the binding signal came to 0.2 E-score. In the case of AATGATAC, the binding signal amounted to 0.467 E-score. On to ATTTATAG, for which the binding signal is -0.186 E-score. Turning to GAAGGTGC, the binding signal was -0.0328 E-score.

Consider GAGGCCTA, for which the binding signal is -0.173 E-score.

Turning to TAAATCAA, the binding signal was -0.0113 E-score. Take GTCGTTAA: the binding signal was -0.142 E-score. The figure for GCAGCACA is -0.12 E-score; for CGACGGAA it is -0.193 E-score. The figure for CCCTTCCA is -0.139 E-score; for CCTACCGC it is -0.133 E-score. The figure for CCTGAGCC is 0.0587 E-score; for AAAGATAG it is 0.0121 E-score. For AGTATTGC, the binding signal was 0.129 E-score.

On to GGAGGAGA, for which the binding signal was 0.11 E-score. To ATGCGCCA belongs -0.204 E-score; to TCTGCAGA, -0.0386 E-score. With ACCTGAGC, the binding signal was -0.0241 E-score.

Take CGGCACAC: the binding signal was 0.0516 E-score. For CGCAAGGA, the binding signal turned out to be 0.057 E-score.

With TACCTTAA, the binding signal was -0.00198 E-score.

In the case of CAAACTGA, the binding signal was -0.152 E-score. For the sequence AATCCTTA, the binding signal came to 0.041 E-score. For the sequence GCCGCTTA, the binding signal is -0.193 E-score. To ACGATAGA belongs 0.106 E-score.

As for AATATTAC, the binding signal is -0.0457 E-score.

As for GACGGTGA, the binding signal was -0.0436 E-score.

ATGTCGCC: the binding signal is -0.0613 E-score. The figure for CCCTACAG is -0.018 E-score. To ATGGCCAA belongs -0.209 E-score; to GCGGGAGC, -0.246 E-score. With GCACTGAA, the binding signal was -0.342 E-score. On to ACCATCAC, for which the binding signal stood at 0.0188 E-score. To CGCAAATA belongs -0.178 E-score.

For the sequence CTCCGAAC, the binding signal was -0.0607 E-score. With CATTTCGA, the binding signal was -0.113 E-score. To ACTTGGTA belongs 0.021 E-score. The figure for CCCAGGAC is 0.13 E-score; for CATGACGG it is -0.0832 E-score. To AAAAGCAT belongs -0.221 E-score; to CCGTATTC, 0.177 E-score; to CGGATAGC, 0.382 E-score.

In the case of AAACGTAT, the binding signal amounted to 0.262 E-score.

For the sequence CCTAAGGC, the binding signal is -0.18 E-score.

Turning to GAATACTA, the binding signal amounted to 0.14 E-score.

Regarding GAAAGGAC, the binding signal is -0.0979 E-score. Consider AAGAGGCG, for which the binding signal is -0.298 E-score. The figure for CAACCATA is -0.011 E-score; for CTCGCCCC it is 0.0946 E-score.

Turning to AAACATGG, the binding signal is -0.0271 E-score. On to CATATAGG, for which the binding signal is 0.121 E-score.

On to ATCAACAC, for which the binding signal came out at 0.267 E-score. For CCCGAGGA, the binding signal is 0.125 E-score. With ATGTTAAT, the binding signal was -0.023 E-score.

Turning to CTATCTAC, the binding signal came out at 0.24 E-score. On to CGTCCTGA, for which the binding signal is -0.0325 E-score. Take GTGAGGGA: the binding signal was found to be 0.125 E-score. The figure for CCGTATAG is 0.239 E-score. The figure for TCACTTCA is -0.0996 E-score. On to TGAGGCCA, for which the binding signal stood at 0.00241 E-score.

On to AGAGCCTC, for which the binding signal is -0.17 E-score. Take GTGTCTAA: the binding signal stood at 0.116 E-score. The figure for AAAACCGA is -0.00205 E-score. The figure for GCGGCAAA is -0.0328 E-score; for AGCATGGA it is -0.0205 E-score. In the case of ATGAGGTA, the binding signal is 0.0879 E-score.

For the sequence TATATGGA, the binding signal was 0.207 E-score. With GCCTGGCC, the binding signal is -0.315 E-score.

For the sequence CAGGGGCA, the binding signal is -0.0236 E-score. Turning to ATCGGTCA, the binding signal turned out to be 0.0978 E-score.

With GGCCCAAC, the binding signal is -0.0844 E-score. The figure for AATTAAAG is -0.255 E-score; for TACTACCA it is 0.0906 E-score. To CTTGGCTC belongs -0.181 E-score; to GCCATCTA, -0.126 E-score; to CGCGATCC, 0.391 E-score. The figure for ATTGTTAC is -0.0151 E-score; for ACCCATTG it is 0.0832 E-score; for GAGATTCC it is 0.13 E-score. ACGCGGCT: the binding signal is -0.195 E-score. In the case of AAATCCCA, the binding signal is -0.0283 E-score.

Take ATCTATGC: the binding signal worked out at 0.261 E-score. ACCCCGAA: the binding signal stood at 0.0891 E-score. Consider AGACACCG, for which the binding signal stood at 0.323 E-score.

With AGTCAGAC, the binding signal was -0.0643 E-score. For the sequence AGCAAATC, the binding signal is -0.093 E-score. Regarding TCGTAGAA, the binding signal stood at 0.0606 E-score. With ACCTTGAT, the binding signal turned out to be 0.181 E-score. To GTACCGGA belongs 0.0429 E-score. To ATATTTGA belongs 0.173 E-score; to CGTCTTCC, 0.0555 E-score.

Turning to CCTCCCTC, the binding signal was 0.025 E-score. The figure for ATCACACC is 0.341 E-score; for GGTATAGA it is 0.301 E-score. The figure for AGTCTCTC is -0.248 E-score; for CTCTATGA it is -0.0356 E-score; for ACGGCTAC it is 0.116 E-score.

TAGCTAGA: the binding signal was -0.0245 E-score. To AGAGTATG belongs -0.191 E-score; to AGTGATCG, 0.25 E-score. The figure for ATTGTGCG is -0.05 E-score. The figure for AACAGGCT is -0.0147 E-score.

With GCTAAGCA, the binding signal is -0.159 E-score. To CGGGCTAG belongs -0.044 E-score; to GAAGTGTA, -0.147 E-score; to AGGATCGA, 0.289 E-score. With AACGCGGT, the binding signal is 0.0348 E-score. To AGTGTAGG belongs 0.0488 E-score.

Regarding AGCGATGA, the binding signal is -0.0399 E-score. The figure for ATAAGCAT is 0.00297 E-score; for CCGCATTC it is -0.233 E-score; for TCATTCGA it is 0.0396 E-score. For ACCTGCCA, the binding signal is -0.0771 E-score. The figure for ACCCGCAT is 0.144 E-score.

With GGCTAAAC, the binding signal is -0.14 E-score. For TATTAGAA, the binding signal worked out at 0.0911 E-score. The figure for AGGGTGCG is -0.103 E-score; for AAAACAGA it is -0.0704 E-score; for AAGGGGCA it is -0.183 E-score. To TGAGTGCA belongs -0.0271 E-score; to CGGCAAAA, -0.179 E-score.

As to ACCAAACT, the binding signal is -0.15 E-score.

As to CAACCGGA, the binding signal is 0.0477 E-score. To ACCGTGGA belongs 0.0731 E-score; to ACAGAAGC, -0.169 E-score; to TCAAGAAA, -0.226 E-score. The figure for GTCCGGTA is 0.0225 E-score. For AGACGAGG, the binding signal was -0.026 E-score. With GGAATCCC, the binding signal is 0.232 E-score.

On to CGTCCAGA, for which the binding signal is -0.0313 E-score. Regarding ATAACGAG, the binding signal was -0.0645 E-score.

For CCTGCGAA, the binding signal was -0.31 E-score. The figure for CCCGGCTA is 0.128 E-score; for ATTGCAGG it is 0.0225 E-score. ACTCAGCT: the binding signal is -0.152 E-score. As for CTCCCCAA, the binding signal was 0.118 E-score.

For CTCTAATC, the binding signal was 0.052 E-score.

In the case of GAAGGAAA, the binding signal was -0.221 E-score.

As for CAGCTTCG, the binding signal was -0.0658 E-score. The figure for TCGGCCGA is -0.0272 E-score; for AAGTCTGC it is -0.264 E-score; for GCAAAGGC it is -0.138 E-score.
